In publication PMC4336329 (PLoS ONE, 2015):
About 14,000 (4.5%) of roughly 310,000 compounds showed an effect of 50% or more. Effects have a minus sign here. The list shows a part of the results.

Target: human ether-à-go-go-related gene (hERG) potassium channel (human, UniProt Q12809)
Assay: primary screen, population patch clamp on CHO cells stably expressing hERG
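Note: peak tail current of the secondary pulse compared with the same well before compound.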

Chain of human ether-à-go-go-related gene (hERG) potassium channel (Q12809 whole entry, looked up): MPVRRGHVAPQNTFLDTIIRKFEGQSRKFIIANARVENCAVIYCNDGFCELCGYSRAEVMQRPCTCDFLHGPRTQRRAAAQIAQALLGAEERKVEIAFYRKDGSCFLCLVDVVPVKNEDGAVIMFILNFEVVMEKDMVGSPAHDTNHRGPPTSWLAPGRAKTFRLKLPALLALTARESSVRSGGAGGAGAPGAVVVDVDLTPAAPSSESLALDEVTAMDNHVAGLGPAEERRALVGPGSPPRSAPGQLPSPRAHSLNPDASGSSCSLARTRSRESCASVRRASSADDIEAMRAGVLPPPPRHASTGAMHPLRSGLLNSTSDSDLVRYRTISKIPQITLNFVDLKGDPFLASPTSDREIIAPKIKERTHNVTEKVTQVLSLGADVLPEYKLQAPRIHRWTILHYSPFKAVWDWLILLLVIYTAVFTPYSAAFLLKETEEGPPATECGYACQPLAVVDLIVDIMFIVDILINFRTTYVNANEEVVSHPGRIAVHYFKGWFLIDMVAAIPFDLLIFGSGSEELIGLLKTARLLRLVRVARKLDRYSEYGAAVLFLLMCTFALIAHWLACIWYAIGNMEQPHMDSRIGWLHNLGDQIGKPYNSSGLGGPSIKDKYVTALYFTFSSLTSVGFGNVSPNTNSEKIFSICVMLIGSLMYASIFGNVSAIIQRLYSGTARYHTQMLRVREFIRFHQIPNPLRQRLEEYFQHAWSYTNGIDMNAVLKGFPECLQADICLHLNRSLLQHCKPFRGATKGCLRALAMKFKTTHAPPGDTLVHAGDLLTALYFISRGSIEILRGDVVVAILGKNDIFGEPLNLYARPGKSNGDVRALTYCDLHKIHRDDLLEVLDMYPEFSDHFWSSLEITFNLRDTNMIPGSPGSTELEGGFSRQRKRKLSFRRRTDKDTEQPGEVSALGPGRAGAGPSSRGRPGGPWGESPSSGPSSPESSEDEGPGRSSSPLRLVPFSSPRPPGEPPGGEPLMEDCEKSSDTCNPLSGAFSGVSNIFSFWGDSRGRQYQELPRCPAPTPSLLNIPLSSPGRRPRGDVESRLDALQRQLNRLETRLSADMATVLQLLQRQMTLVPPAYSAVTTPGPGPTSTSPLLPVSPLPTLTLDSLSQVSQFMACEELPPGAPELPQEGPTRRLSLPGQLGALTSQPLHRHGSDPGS

Row | SMILES | hERG current change (%, negative = inhibition) at 10uM
1 | CN(CC(=O)NC1CC1)S(=O)(=O)c1ccc(Br)cc1 | 9.51%
2 | CCOC(=O)c1ccc(NCc2nc3ccccc3[nH]2)cc1 | -10.6%
3 | O=C(COC(=O)c1ccccc1NCc1ccco1)Nc1ccc2c(c1)OCO2 | -3.83%
4 | Nc1nc(-n2cnnc2)nn1-c1ccccc1 | -0.287%
5 | OC[C@H]1OC(Nc2ccc(N=Nc3ccccc3)cc2)[C@@H](O)[C@@H](O)[C@@H]1O (stereo partly shown) | 16.1%
6 | O=C(Nc1ccccn1)c1c(O)c2cccc3c2n(c1=O)CCC3 | 7.22%
7 | COc1ccc(C2CC(=O)Oc3c(C(CCN4CCCC(C)C4)c4ccc(N(C)C)cc4)c(OC)cc(OC)c32)cc1 (stereo not shown) | -28.4%
8 | CCCCN1C(Nc2ccccc2)=NC[C@@H]1C | 14.4%
9 | CCO[C@@H]1OC(C(=O)N2CCOCC2)=C[C@H](C2CC2)[C@H]1CCCO | 11.6%
10 | CCOC(=O)C1CCN(C(=O)CSc2ccc(Cl)cc2)CC1 | -32.5%
11 | CCOc1ccc(N(CC(=O)Nc2cc(Cl)ccc2C)S(C)(=O)=O)cc1 | -16.4%
12 | Cc1cccc(N2CCN(S(=O)(=O)c3ccc4c(c3)n(C)c(=O)c(=O)n4C)CC2C)c1 (stereo not shown) | -7.04%
13 | CCOCCCNC(=O)CN1C(=O)CSc2ccccc21 | -8.97%
14 | COCCNC(=O)CC(=O)N/N=C/c1ccc(C(=O)OC)cc1 | 20.7%
15 | CCOC(=O)N1CCC(NC(=O)CS(=O)(=O)Cc2nc(-c3cccc(OC)c3)oc2C)CC1 | -54.2%
16 | O=C(NC(=S)NC1CCCC1)c1ccccc1Br | 15.2%
17 | O=C(Cn1nnc2ccccc2c1=O)NC1CCCCC1 | 19.9%
18 | COc1ccc(CC(=O)N2N=C(C)CC2(O)C(F)(F)F)cc1 (stereo not shown) | 2.87%
19 | CCOC(=O)c1c(Cc2cccc(Cl)c2)c[nH]c1C | -3.91%
20 | C=C(C)c1cccc(C(C)(C)NC(=O)NCc2ccc(OC)cc2)c1 | 12.5%
21 | COc1ccc(Nc2nccc3c2nnn3C)cc1 | 9.82%
22 | Cc1cccc2cc(COC(=O)C(C)C)c(=O)[nH]c12 | -69.3%

Row | SMILES | hERG current change (%, negative = inhibition) at 10uM
23 | O=S(=O)(c1ccc(Cl)cc1)N1CCN=C1SCc1cccc(Cl)c1 | -5.86%
24 | COC(=O)C1=C(c2ccc(Cl)c(C(F)(F)F)c2)C[C@@H]2CC[C@H]1N2C(=O)NCCOc1ccc(OC)cc1 | 11.4%
25 | COc1ccccc1CCc1nnc(N)s1 | 14.5%
26 | Cc1cccc(S(=O)(=O)c2c(N)n(/N=C/c3cccnc3)c3nc4ccccc4nc23)c1 | -4.67%
27 | Cc1cc(NC(=O)CSCC(=O)Nc2ccccc2Oc2ccccc2)no1 | -8.79%
28 | Cc1ccc(S(=O)(=O)c2c(C)cc(C)nc2Cl)cc1 | -2.14%
29 | c1ccc(C2[C@H]3CN(CC4CCCCC4)[C@H](c4ccccc4)C34CC2(c2cccnc2)C4)cc1 (stereo partly shown) | -9.14%
30 | N/C(=N\[N+](=O)[O-])N1CCN(C(=O)Oc2ccccc2)CC1 | 17%
31 | CN(Cc1ccccc1)C(=O)C1CCN(S(=O)(=O)c2cccc3nsnc23)CC1 | -12%
32 | CCNc1ccc(S(=O)(=O)N(C)C)cc1[N+](=O)[O-] | -11.6%
33 | Cc1nc(SCC(=O)Nc2nccs2)c(C#N)c(C)c1C | 16.2%
34 | O=[N+]([O-])c1ccc(-n2ccnc2)cc1 | 7.95%
35 | CC(=O)C[C@@H](O)CC(=O)[C@@H]1OC(=O)CC/C=C\Cc2ccccc21 | 16%
36 | COc1cccc(C(C(=O)NC2CCCC2)N(Cc2ccc(C)cc2)C(=O)c2ccco2)c1OC (stereo not shown) | 6.86%
37 | COc1ccc(/C=N/Nc2cc(N3CCCC3)nc(N3CCCC3)n2)cc1 | -31.7%
38 | Oc1ccccc1CNCCCNCc1ccccc1O | -5.59%
39 | O=C(Cc1ccccc1[N+](=O)[O-])NCCC1=CCCCC1 | 7.74%
40 | COc1cc(C2CC(=O)NC(SCC(=O)Nc3ccccc3C)=C2C#N)ccc1O (stereo not shown) | 9.64%
41 | Cc1cccc(NC(=O)c2cnccn2)c1 | 14.3%
42 | CCc1ccc(NC(=O)CC2C(=O)N(c3ccc(C)cc3)C(=O)N2C2CC2)cc1 (stereo not shown) | -4.46%
43 | CCN(c1ccc(C(=O)CN2C(=O)NC3(CCOc4ccccc43)C2=O)cc1)S(C)(=O)=O (stereo not shown) | -1.91%
44 | O=C(CN(C(=O)CCC(=O)Nc1ccccn1)c1ccc(F)cc1)NCc1ccc(F)cc1 | -3.16%

Row | SMILES | hERG current change (%, negative = inhibition) at 10uM
45 | COc1cccc2cc(C(=O)Nc3cccc(C)n3)c(=O)oc12 | 4.36%
46 | CCOC(=O)c1c(C)[nH]c(C)c1S(=O)(=O)NCc1ccc(OCC)cc1 | -7.15%
47 | CCN(CC)c1ccc(S(=O)(=O)N2CCOCC2)cc1NC(=O)CSc1nncn1C | 5.7%
48 | CC(=O)c1c(C(C)=O)c(C)n(C(c2ccccc2)c2ccccc2)c1C | -9.83%
49 | O=C(CN1C(=O)C2C3C=CC(C3)C2C1=O)NCc1ccco1 (stereo not shown) | 1.25%
50 | COc1cccc(NC(=O)CN(C)C(=O)CN2C(=O)NC3(CCCC3)C2=O)c1 | -11.8%
51 | Cc1ccc(C)c(S(=O)(=O)N2CCN(C(=O)CCNS(=O)(=O)c3ccc(C)c(C)c3)CC2)c1 | -5.1%
52 | CCOC(=O)C1CCN(Cc2cc(=O)oc3c(C)c(C)ccc23)CC1 | -3.23%
53 | COCCn1c(SCC#N)nnc1-c1ccc2c(c1)OCO2 | -24.2%
54 | CCC(=O)Nc1c(-c2ccc(C)cc2)nc2ccc(C)cn12 | -0.87%
55 | Cc1c(NC2(c3nnnn3-c3ccc(Br)cc3)CCCCC2)c(=O)n(-c2ccccc2)n1C | -36.3%
56 | Cc1ccc(CN2CCC(Oc3ccc(C(=O)NCc4ccccn4)cc3)CC2)o1 | -15.2%
57 | Cc1ccc(OCC(=O)O/N=C(\N)c2ccncc2)c(C)c1 | -6.39%
58 | Cc1ccc(CNC(=O)C2CCCN(S(=O)(=O)c3cccnc3)C2)cc1 (stereo not shown) | -9.82%
59 | O=C(NCCC1=CCCCC1)C1CCC(CNc2c(N3CCCC3)c(=O)c2=O)CC1 (stereo not shown) | 29.2%
60 | COc1ccc(OCCSc2nnc(C)n2-c2ccccc2)cc1 | -32.8%
61 | COCCn1c(C)cc(C(=O)COC(=O)c2ccc(N3CCCC3=O)cc2)c1C | 3.89%
62 | Cn1c(SCC(=O)Nc2ccccc2)nnc1-c1ccc2nonc2c1 | -9.53%
63 | O=C(/C=C/c1cccs1)NC1CCCC1 | 18.1%
64 | Cc1cc(C(=O)NCCCN2CCCC2=O)no1 | 10.9%
65 | O=C(CCCCn1c(=O)c2ccccc2n(Cc2ccccc2F)c1=O)NC1CCN(Cc2ccccc2)CC1 | -9.04%
66 | CCCCCCOC(=O)C(C#N)c1nc2ccccc2nc1N1CCN(C)CC1 (stereo not shown) | -74.7%

Row | SMILES | hERG current change (%, negative = inhibition) at 10uM
67 | CC(Oc1ccccc1)C(=O)Nc1cccc([N+](=O)[O-])c1 (stereo not shown) | -22%
68 | C/C(=N\NC(=S)NCc1ccccc1)c1cccc(Br)c1 | 10.6%
69 | Cc1ccc(S(=O)(=O)N2CCCOC2CNC(=O)C(=O)NCc2ccccn2)cc1 (stereo not shown) | 4.8%
70 | CCOC(=O)c1cnn2c1[nH]c(=O)c1ccccc12 | 7.36%
71 | CCCCn1c(-c2ccccc2C)nc2cc3[nH]c(=O)c(C(C)C)nc3cc21 | -1.92%
72 | COc1ccc(NC(=O)Nc2nc3ccccc3s2)cc1 | 7.87%
73 | O=C(NCC1CCCO1)c1cccc(-n2cnnn2)c1 (stereo not shown) | 14.3%
74 | Cc1ccc(CCNC(=O)CN(C)S(=O)(=O)c2ccc3c(c2)n(C)c(=O)c(=O)n3C)cc1 | -44.2%
75 | NC(=O)NC(=O)COC(=O)c1sc2ccccc2c1Cl | 3.64%
76 | Cc1cc(SCC(=O)NC2CCCCC2)nc2ccccc12 | 7.88%
77 | O=C(c1cc(-c2cccc(Cl)c2)nc2ccccc12)N1CCCC1 | -40.2%
78 | CC(C)OC(=O)/C(C#N)=C/c1ccc(-c2ccc(SC(F)F)cc2)o1 | 10.2%
79 | COc1ccc(/C=C/C(=O)N2CCN(S(=O)(=O)c3ccccc3)CC2)cc1OC | -9.26%
80 | NC1CCCCC1N=Cc1c(O)n(Cc2ccc(F)cc2)c(=O)[nH]c1=O (stereo not shown) | 0.861%
81 | CC(OC(=O)/C=C/c1ccccc1)C(=O)NC1CCCCC1C (stereo not shown) | -7.05%
82 | Cc1ccc(NC(=O)c2ccccc2F)cc1S(=O)(=O)N1CCCCCC1 | 9.92%
83 | Cc1ccc(O)c(NC(=O)CSc2n[nH]c(C)c2[N+](=O)[O-])c1 | 13.8%
84 | C=CCN1c2ccccc2[C@]23C[C@@H](C(=O)OC)N(C(=O)CC(C)C)C2=NC(C(=O)OC)=C(C(=O)OC)[C@H]13 | -12.3%
85 | COCCNS(=O)(=O)c1cc2[nH]c3c(c2cc1C)C(=O)CC(C)(C)C3 | 17.8%
86 | CCCC(=O)NCCc1nc2ccccc2n1CC(=O)c1ccccc1 | -12.8%
87 | CCOC(=O)N1CCN(C(=O)CCC(=O)c2ccc(OCC)cc2)CC1 | -1.5%
88 | O=C(CSc1nnc(-c2cccnc2)o1)Nc1ccccc1F | 9.96%
